Source: article PMC7819943, “Rice protein-binding microarrays: a tool to detect cis-acting elements near promoter regions in rice”
The other results are listed elsewhere or left out.

molecular target: T1, OsWOX13 (Oryza sativa, UniProt Q5QMM3 1-267); assay: protein-binding microarray (RPBM); PBS, 2% BSA, 51.3 ng/ul salmon testes DNA, 50 uM zinc acetate, 200 nM TF, 25 C, 1 h; high values mean tight binding; settings: protein: recombinant; tags: N-terminal polyhistidine and DsRed monomer fusion (pET32a); label: CyDye5-dUTP incorporated in the synthesized complementary strand; 3' TTTTT single-stranded linker to array surface; dsDNA, one strand shown
T1 sequence: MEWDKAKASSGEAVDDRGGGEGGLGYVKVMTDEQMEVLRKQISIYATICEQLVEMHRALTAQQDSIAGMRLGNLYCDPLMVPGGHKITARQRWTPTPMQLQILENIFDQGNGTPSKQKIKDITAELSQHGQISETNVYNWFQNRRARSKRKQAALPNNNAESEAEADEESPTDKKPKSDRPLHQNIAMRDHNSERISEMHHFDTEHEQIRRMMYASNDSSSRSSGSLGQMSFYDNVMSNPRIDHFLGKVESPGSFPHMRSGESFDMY
Method in brief: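 Binding signal is defined as the fluorescence intensity of each feature in arbitrary units, read on an Axon 4000B scanner. Transcription factors with N-terminal polyhistidine and DsRed fusions came from E. coli BL21-CodonPlus and were purified on Ni–NTA. They were incubated at 200 nM for 1 h at 25 °C on a custom Agilent array that had been made double-stranded with Cy5-dUTP, with 50 µM zinc acetate present, and the array was washed.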

Sequence	binding signal
TATACATTATTAAATTTAATAAAACTAATTTAATATGTTGCGGAGTCACCTAGTGCAG	24900 fluorescence intensity (a.u.)
CATGATTTTCTAAAATATATATATATCCATGCGAACTTCGCGGAGTCACCTAGTGCAG	20900 fluorescence intensity (a.u.)
ATTCGATAATATTTGATTGTGTTTTCATATCTGAGGTTTTCGGAGTCACCTAGTGCAG	5820 fluorescence intensity (a.u.)
ATAACTATAATTATATGTTGTTTAGCATATATTAAGGTTTCGGAGTCACCTAGTGCAG	16400 fluorescence intensity (a.u.)
AACAAATTAACAATATGATCGATCGACGATAACGAACTGACGGAGTCACCTAGTGCAG	23000 fluorescence intensity (a.u.)
TGGTAAATTTGTTATTTGATAGGTCCAAGAAGAACGATTCCGGAGTCACCTAGTGCAG	21200 fluorescence intensity (a.u.)
TTTAATTGTATTAACACTCGTGAGAATGATACATGAGATCCGGAGTCACCTAGTGCAG	29000 fluorescence intensity (a.u.)
CAATACATAACAGACAAATTATCAAAATAGATTAAAGTTTCGGAGTCACCTAGTGCAG	4710 fluorescence intensity (a.u.)
CTTCTCTGTAATTGTTTATTTCTTCTAAATGTAATGAAGTCGGAGTCACCTAGTGCAG	11800 fluorescence intensity (a.u.)
CATCCACTAATTAACAAGATGCCACATCATCATCCACTAACGGAGTCACCTAGTGCAG	17000 fluorescence intensity (a.u.)
AGACAACAAATCACATTTAATTCATCTACACAGCAGCACCCGGAGTCACCTAGTGCAG	5330 fluorescence intensity (a.u.)
TAATAAAACTAATTTGATTTATTAGATACTGCTAAATTTTCGGAGTCACCTAGTGCAG	8080 fluorescence intensity (a.u.)
CATCACTGTAACATTTCAATCTCTTCTATCGGTAGCATGACGGAGTCACCTAGTGCAG	3210 fluorescence intensity (a.u.)
TTATTGATAAATGATGATAAAATATAATCGAGAACCAAACCGGAGTCACCTAGTGCAG	6160 fluorescence intensity (a.u.)
AGCTAATTAAGCTAGTGAGAGCTAGTGGAGGTACATGGCTCGGAGTCACCTAGTGCAG	11600 fluorescence intensity (a.u.)
TCCCAATTATTGGACCTCGACCGCTCCTAAATCCCCTGCCCGGAGTCACCTAGTGCAG	18000 fluorescence intensity (a.u.)
TTGATAATTGGGCACCTATGCCCGACACATAAAACACACTCGGAGTCACCTAGTGCAG	22200 fluorescence intensity (a.u.)
TCTGAATCAATCACACTCCTTGCACAATGCCTTCACTGTCCGGAGTCACCTAGTGCAG	18400 fluorescence intensity (a.u.)
AATACAACGTGTGATTGGACTAGATCGGATAAGTAATTTACGGAGTCACCTAGTGCAG	9210 fluorescence intensity (a.u.)
ATCTAGATAATTAAACTGTCATAAATATATTAATACCTCGCGGAGTCACCTAGTGCAG	22100 fluorescence intensity (a.u.)
GGGAGATTGAGTTTGGCCCGCACAGGGTCTTGTACAAGGACGGAGTCACCTAGTGCAG	4500 fluorescence intensity (a.u.)

Sequence	binding signal
GATTAATTATTAGAGGAGGAGGAGAAGATTAACAAGATCACGGAGTCACCTAGTGCAG	11000 fluorescence intensity (a.u.)
ACCAACAATAATTTCGCTGTCCACCAATTGCGACCAATACCGGAGTCACCTAGTGCAG	4680 fluorescence intensity (a.u.)
TGTTAACTAATTAAATACCCATTATCAAACATTTAATTGACGGAGTCACCTAGTGCAG	22900 fluorescence intensity (a.u.)
GCTAATACTTAATTAATAACGCGCTAATAAACCGCTCCGTCGGAGTCACCTAGTGCAG	16900 fluorescence intensity (a.u.)
GTCAGTCACTGGACATTAATCACGTCAGTGATGCTGCTAACGGAGTCACCTAGTGCAG	4500 fluorescence intensity (a.u.)
ACTGAACATCAATCAACATTTGCAAATCTACAGACTGCAGCGGAGTCACCTAGTGCAG	20700 fluorescence intensity (a.u.)
CTAACTATCGAAATAATTGGGGTTAAGATTTTCGGTATTGCGGAGTCACCTAGTGCAG	7150 fluorescence intensity (a.u.)
GTTTGATTAGGGTAGATAGAGAGAGAGGGGTTGGGTTTGGCGGAGTCACCTAGTGCAG	44200 fluorescence intensity (a.u.)
ACTAATTAAGAAGTCTTTTGAGCTACTCCACCGGACAATTCGGAGTCACCTAGTGCAG	6580 fluorescence intensity (a.u.)
AAAAGACTAATTAGCATCTCCCGAAAACTGAACCGACATACGGAGTCACCTAGTGCAG	19100 fluorescence intensity (a.u.)
TCGAAGGACTAATATGGATAGATTGAAACATCAAGGACTACGGAGTCACCTAGTGCAG	5530 fluorescence intensity (a.u.)
CCTCCAATCAACTGTACAATGAGTAGCTCATTTCTCTTTTCGGAGTCACCTAGTGCAG	16600 fluorescence intensity (a.u.)
CAGGACTAATTGGGGTTGCAAACTGGGACTACAAACTACTCGGAGTCACCTAGTGCAG	28300 fluorescence intensity (a.u.)
CCCCATATTTTGGTGATTGGAGAAATTAAGGGCCCCTTTGCGGAGTCACCTAGTGCAG	17400 fluorescence intensity (a.u.)
TTTAGATTTATTAACATCTATATGGATGTAGGAAATGTTACGGAGTCACCTAGTGCAG	6660 fluorescence intensity (a.u.)
ATCTAAAACTAATTAACACTTAACTCAAAAGCTATAAAATCGGAGTCACCTAGTGCAG	5170 fluorescence intensity (a.u.)
TTTTGATTTGCCACATTTGCAGTGGCATGGATCCAATTAACGGAGTCACCTAGTGCAG	15000 fluorescence intensity (a.u.)
CTGACTGCTTCGTCACCAACTCAACGGATTCCATTTCCGCCGGAGTCACCTAGTGCAG	3700 fluorescence intensity (a.u.)
CCTTTGTTTATACCTAATTACTAGAATTACTGTCGTGCACCGGAGTCACCTAGTGCAG	6800 fluorescence intensity (a.u.)
GCAAATTGAATTAATTCGTGTGATATTTGTTCTGCACCGGCGGAGTCACCTAGTGCAG	59500 fluorescence intensity (a.u.)
ACACGCTACTAATTGTCAGCTTGCCTGTTACGGAGTACATCGGAGTCACCTAGTGCAG	3280 fluorescence intensity (a.u.)

Sequence	binding signal
CAATTAATCACATATTATTATTTATGTTCAGGAGATTCAACGGAGTCACCTAGTGCAG	10900 fluorescence intensity (a.u.)
GACTAATTAAGTTAGAAGCATTAATGTTGCTAGGAGAAAACGGAGTCACCTAGTGCAG	16400 fluorescence intensity (a.u.)
CCCACAATTAATTGGGCCTAATGGATCGGTGCCCTTGTGGCGGAGTCACCTAGTGCAG	53600 fluorescence intensity (a.u.)
TATAGGGTTTGATTGATCCTGGATGTGCTCCAAGAATCAACGGAGTCACCTAGTGCAG	16000 fluorescence intensity (a.u.)
ATAACAGATAGATAGGCTACCCCAAATATTGTACCAGTGTCGGAGTCACCTAGTGCAG	18300 fluorescence intensity (a.u.)
CGCCATGATTTTACTATACTTAGCCTAACTAATGCTGTCCCGGAGTCACCTAGTGCAG	9060 fluorescence intensity (a.u.)
ATGATGAGAGGTCTAAATTAAAAGATATCTAACAGACTGACGGAGTCACCTAGTGCAG	4400 fluorescence intensity (a.u.)
AGTTGTATTGATGGATAGGTTGGTGAGGGGTATTAAATGGCGGAGTCACCTAGTGCAG	12500 fluorescence intensity (a.u.)
TTCTTGGTAATCAATCGAATGATCTATAGCTGAAAATTAACGGAGTCACCTAGTGCAG	7100 fluorescence intensity (a.u.)
GTTAACTGAAGATTTGGGAGTTGTGAGGAACAATACAAGCCGGAGTCACCTAGTGCAG	3600 fluorescence intensity (a.u.)
CAATTGTCCGGATTGAGATATGACTGAAGCGGATGCTGGACGGAGTCACCTAGTGCAG	3220 fluorescence intensity (a.u.)
GTAATAGACGAGGCCCATACAAACAGCCATCAAGGCCCAACGGAGTCACCTAGTGCAG	5560 fluorescence intensity (a.u.)
CAAATTTGTAATAATTAATACTTAATTAATCATATGCTAACGGAGTCACCTAGTGCAG	43000 fluorescence intensity (a.u.)
GTCACTTTCTTTTGTCGATTGACAGAGTCTCGTGCAATTGCGGAGTCACCTAGTGCAG	4740 fluorescence intensity (a.u.)
ATGATTATACATTATCATGATAATACGAACAGCATGTGCACGGAGTCACCTAGTGCAG	39100 fluorescence intensity (a.u.)
TTGATCTTAATTTGGTGACATTTTGTTCTAAGCAAAGTGTCGGAGTCACCTAGTGCAG	17700 fluorescence intensity (a.u.)
AATTTTGATTTTGAACGGCACCGAACGCAGCAAATGGCATCGGAGTCACCTAGTGCAG	3650 fluorescence intensity (a.u.)
TGAATTGATTCGTTAGTACATAATTAAGTACTACATCTATCGGAGTCACCTAGTGCAG	9210 fluorescence intensity (a.u.)
AATCAATCTTTTGTCTGTTGGATGCACGATGAATCTCAACCGGAGTCACCTAGTGCAG	3600 fluorescence intensity (a.u.)
GACAAAATCATGCTACCAATTTGATTTGTGATCTTCCGATCGGAGTCACCTAGTGCAG	14700 fluorescence intensity (a.u.)
GTGATTAGGGTAGTGACTGGTGACTAATTCATCACTCACCCGGAGTCACCTAGTGCAG	33800 fluorescence intensity (a.u.)

Sequence	binding signal
AGTACTGATTGTTCTTTATAATCTTTTAGTACGTTTCATCCGGAGTCACCTAGTGCAG	24700 fluorescence intensity (a.u.)
GACTCTAATTGCATGCAGTTCTTCAACTTATTTAGAACGTCGGAGTCACCTAGTGCAG	11300 fluorescence intensity (a.u.)
CTCTTGACAGTTGACTAGGGATGACAATTTTACCTATGGGCGGAGTCACCTAGTGCAG	15200 fluorescence intensity (a.u.)
ACGTAATGATTACTTTTAGAAAATAAACATATTTAATAACCGGAGTCACCTAGTGCAG	25800 fluorescence intensity (a.u.)
CACCAATCAGCCCAGCCCACGCAAAGTATCTCTCTCTCTCCGGAGTCACCTAGTGCAG	10500 fluorescence intensity (a.u.)
CGCTAAAATTAGAAGTTTGATTGAAATTAGAACGATGTGACGGAGTCACCTAGTGCAG	29200 fluorescence intensity (a.u.)
AAGTTGCCAATTTGATCATCAATTTCAATAGATTAACAACCGGAGTCACCTAGTGCAG	8650 fluorescence intensity (a.u.)
TCTGTGGATTACTTTTAAATTACGAATGGAAATTAAAACACGGAGTCACCTAGTGCAG	4110 fluorescence intensity (a.u.)
TAAAATTTAAACTAAATAACTAAGCCCGAGTTTAGTTTCACGGAGTCACCTAGTGCAG	9800 fluorescence intensity (a.u.)
AAAGATGATAATTTTGTTCCTTTTCCCACAGATATCCAAACGGAGTCACCTAGTGCAG	5780 fluorescence intensity (a.u.)
CATAATTGTTTAAGTGGCATGCAAATATAACTAGGGGACACGGAGTCACCTAGTGCAG	24700 fluorescence intensity (a.u.)
TGGTTGACTGGCCCACGTGTCGGTGACGGGGAGTTGCCTGCGGAGTCACCTAGTGCAG	19900 fluorescence intensity (a.u.)
TTACACGACTAATTAATCTTAGATATATATATATATATATCGGAGTCACCTAGTGCAG	4660 fluorescence intensity (a.u.)
AATTCATCAATTGATGGAAAGTGAATATTAGGCCTTGGTCCGGAGTCACCTAGTGCAG	19900 fluorescence intensity (a.u.)
AGAAGATTGATAAGATATGTAAAATTAACGAGATGAGCTACGGAGTCACCTAGTGCAG	29800 fluorescence intensity (a.u.)
TCGCGCCTCTCCTGCAGCTCCCTCCGTATCAATCCAACGGCGGAGTCACCTAGTGCAG	3210 fluorescence intensity (a.u.)
AATTAACATTGACAATTACTTAAGGAGTGCACATTAGTCTCGGAGTCACCTAGTGCAG	9150 fluorescence intensity (a.u.)
ATGGATTATTAGATGGATAATATGGGTGGGGATGAAGTGTCGGAGTCACCTAGTGCAG	7060 fluorescence intensity (a.u.)
ATCACGGAGGAGGCGTTCGGGGAGGGAGGGTGGGGCGCGCCGGAGTCACCTAGTGCAG	5950 fluorescence intensity (a.u.)
TGTATGCTCATCAACTACTGATTATAATTCATTCATTCCTCGGAGTCACCTAGTGCAG	6030 fluorescence intensity (a.u.)
CGGTAACTTCCATCCATCAAATCATCAAACCATCCATGCCCGGAGTCACCTAGTGCAG	3630 fluorescence intensity (a.u.)
